Laboratory results published in the supplement of paper PMC12217912.
The other results are listed elsewhere or left out. Sequences were assembled here from the parent chain. Inactive controls read about 0.05.

B1: TEV protease; numbered along this chain (parent)
chain: MGESLFKGPRDYNPISSSICHLTNESDGHTTSLYGIGFGPFIITNKHLFRRNNGTLVVQSLHGVFKVKDTTTLQQHLVDGRDMIIIRMPKDFPPFPQKLKFREPQREERICLVTTNFQTKSMSSMVSDTSCTFPSGDGIFWKHWIQTKDGQCGSPLVSTRDGFIVGIHSASNFTNTNNYFTSVPKNFMELLTNQEAQQWVSGWRLNADSVLWGGHKVFMVKPEEPFQPVKEATQL

Variants of: B1
Experiment: raw area under fraction-flipped curve 0-4 h after induction (AUC4h, not background-subtracted), DNA-recorder readout of cleavage of the substrate (dimensionless); higher = more cleavage of the substrate by the protease variant
Conditions: temperature: 34 °C; time window: 0-4 h after rhamnose induction
Method: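 In vivo DNA recorder in E. coli TOP10(DE3) ΔrhaA at 34 °C. Each TEVp single-site mutant (parent TEVp 0) is paired with a single-site variant of the 7-mer TEVs (canonical ENLYFQ|S). The substrate sits between flexible linkers in a Bxb1-sfGFP-TEVs-SsrA fusion, so cleavage stabilises Bxb1 and speeds flipping of a recombination array, read by NGS. The value is the raw area under the fraction-flipped curve over 0-4 h after rhamnose induction (AUC4h), with ≥20 reads per time point. It is not background-subtracted; inactive controls average about 0.047.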
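Note: Bxb1 expression induced with 0.2% (w/v) L-rhamnose at OD600 near 0.5, cultures sampled hourly, flipped fraction per protease–substrate barcode pair counted by paired-end Illumina sequencing.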

| Variant | area with substrate ANLYFQS | area with substrate CNLYFQS | area with substrate DNLYFQS | area with substrate FNLYFQS | area with substrate GNLYFQS | area with substrate HNLYFQS | area with substrate KNLYFQS | area with substrate MNLYFQS | area with substrate PNLYFQS | area with substrate RNLYFQS | area with substrate SNLYFQS | area with substrate TNLYFQS | area with substrate WNLYFQS | area with substrate YNLYFQS | area with substrate INLYFQS | area with substrate LNLYFQS | area with substrate NNLYFQS | area with substrate VNLYFQS | area with substrate QNLYFQS |
| --- | --- | --- | --- | --- | --- | --- | --- | --- | --- | --- | --- | --- | --- | --- | --- | --- | --- | --- | --- |
| L77S | 0.0458 | 0.0575 | 0.0434 | 0.0624 | 0.0602 | 0.0664 | 0.0763 | 0.0564 | 0.0621 | 0.0641 | 0.0624 | 0.0688 | 0.0556 | 0.0589 |  |  |  |  |  |
| L77N | 0.0652 | 0.0564 | 0.0583 | 0.0601 | 0.0463 | 0.0589 | 0.0588 |  | 0.058 |  | 0.061 | 0.0559 | 0.0537 | 0.0505 | 0.0799 | 0.0596 | 0.0589 | 0.0805 |  |
| E107W | 0.0623 | 0.0528 | 0.0688 |  |  | 0.0615 | 0.058 | 0.0604 |  |  |  | 0.0641 | 0.0578 |  | 0.0609 |  |  |  |  |
| E107A | 0.0749 | 0.0551 | 0.167 |  | 0.0652 | 0.0406 | 0.072 |  | 0.0715 |  | 0.0343 | 0.0656 | 0.0685 |  |  |  | 0.0602 | 0.0816 |  |
| P94I | 0.0812 | 0.0952 | 0.105 | 0.0655 |  |  | 0.0904 |  | 0.0921 |  |  | 0.0589 | 0.0559 | 0.0555 | 0.0785 |  |  | 0.0685 |  |
| P94G | 0.0661 | 0.0809 | 0.109 |  | 0.0739 |  |  | 0.072 | 0.0826 | 0.0449 | 0.066 |  | 0.0682 | 0.0763 |  | 0.0775 | 0.0699 | 0.0866 |  |
| K98I | 0.0618 | 0.0534 | 0.0816 |  | 0.0662 | 0.0644 |  | 0.0644 | 0.0571 |  | 0.0659 | 0.0566 | 0.0774 |  | 0.0664 | 0.0703 | 0.0717 |  |  |
| D69L | 0.0513 | 0.0641 | 0.0976 |  |  | 0.0591 | 0.0533 | 0.0562 | 0.061 | 0.0625 | 0.0584 | 0.0667 | 0.0634 | 0.0674 | 0.0599 |  | 0.0555 | 0.0691 | 0.0703 |
| D69W | 0.0332 | 0.0546 | 0.0685 | 0.0552 |  | 0.043 |  |  | 0.0565 |  | 0.0173 |  | 0.0483 |  |  | 0.0652 |  | 0.0543 |  |
| K68T | 0.0713 | 0.0846 | 0.0926 | 0.0534 | 0.0739 |  |  | 0.0675 | 0.0679 |  | 0.0867 | 0.0622 | 0.0429 | 0.0449 | 0.0543 | 0.0871 | 0.0678 | 0.0707 |  |
| D91A | 0.0603 | 0.0693 | 0.0703 |  | 0.0552 | 0.0623 |  | 0.0637 |  |  | 0.0732 | 0.0655 | 0.0556 | 0.0644 | 0.047 |  | 0.0615 |  |  |
| D91H | 0.084 | 0.0781 | 0.0794 |  |  | 0.0628 | 0.0615 | 0.0698 | 0.0699 | 0.0647 | 0.0677 | 0.0807 | 0.0621 | 0.0558 |  | 0.0627 | 0.0567 | 0.0731 |  |
| D91P | 0.0665 | 0.0726 | 0.0714 | 0.0745 |  | 0.0898 |  | 0.0483 | 0.0794 |  |  |  | 0.0683 |  | 0.0749 |  | 0.0693 |  |  |
| V78F | 0.0873 | 0.0677 | 0.0621 |  | 0.057 | 0.0554 |  | 0.0558 |  | 0.08 | 0.0624 |  | 0.0599 |  | 0.0541 |  | 0.0678 | 0.0571 | 0.064 |
| V78C | 0.0762 | 0.0825 | 0.0902 |  | 0.0888 | 0.0749 |  | 0.0667 |  |  | 0.0777 | 0.045 | 0.0597 | 0.0591 | 0.0453 | 0.0671 |  |  |  |
| V78S | 0.0565 | 0.0585 | 0.0474 |  | 0.0515 |  |  | 0.0639 | 0.0618 |  | 0.0556 | 0.0534 | 0.0427 |  | 0.0345 | 0.053 | 0.0413 | 0.0656 |  |
| M83T | 0.0606 | 0.0561 | 0.0665 | 0.0646 |  | 0.0648 |  | 0.0556 | 0.0625 |  |  | 0.073 |  | 0.0522 | 0.0654 |  |  |  |  |
| M83W | 0.0505 | 0.0603 | 0.0632 | 0.0819 |  | 0.0635 |  |  | 0.071 | 0.0551 | 0.0542 | 0.0579 | 0.0598 |  | 0.0519 | 0.0637 |  | 0.0698 |  |
| T72D | 0.0673 | 0.0686 | 0.0925 | 0.0498 | 0.0803 | 0.057 | 0.0583 | 0.0916 |  | 0.0444 | 0.0824 | 0.0684 | 0.0641 | 0.0606 |  | 0.0696 | 0.0355 | 0.0667 | 0.0623 |
| V67T | 0.0523 | 0.0667 | 0.0683 |  | 0.0536 | 0.0564 | 0.0702 |  | 0.0641 |  |  | 0.0599 | 0.0579 | 0.0568 | 0.0567 |  |  |  |  |
| V67L | 0.0745 | 0.0665 | 0.073 | 0.0488 | 0.0655 | 0.0533 | 0.0659 | 0.0672 | 0.0601 |  | 0.0499 | 0.0745 | 0.0534 |  |  |  | 0.0636 |  |  |
| V67D | 0.042 | 0.0532 | 0.051 | 0.0437 | 0.0494 | 0.0397 | 0.0248 | 0.047 | 0.0507 |  | 0.0496 | 0.061 | 0.0472 | 0.0322 | 0.0466 |  | 0.0628 |  | 0.063 |
| L73P | 0.0545 | 0.0501 | 0.0602 |  |  | 0.0377 |  | 0.0441 | 0.0744 |  | 0.0572 | 0.0457 |  | 0.0499 | 0.0508 | 0.0522 | 0.0413 |  |  |
| L73Y | 0.0618 | 0.0309 | 0.0699 |  | 0.0604 | 0.0521 | 0.0571 | 0.0481 | 0.0552 | 0.0896 | 0.0536 | 0.0656 | 0.0562 | 0.0849 | 0.0397 | 0.0519 | 0.0827 | 0.0638 |  |
| K100L | 0.0507 | 0.0676 | 0.0817 | 0.0633 |  |  |  | 0.0739 | 0.0752 |  | 0.0785 | 0.0713 | 0.0598 |  | 0.0767 | 0.068 |  |  |  |
| K100E | 0.0491 | 0.0635 | 0.0583 | 0.0519 |  | 0.0578 |  | 0.0736 | 0.119 |  |  | 0.0542 | 0.062 |  | 0.056 |  | 0.0786 |  |  |
| K100R | 0.0638 | 0.0451 | 0.128 |  |  | 0.069 | 0.065 | 0.075 |  |  | 0.0674 | 0.0236 | 0.0472 | 0.0537 | 0.0814 | 0.0608 |  | 0.0603 |  |
